The other results are listed elsewhere or left out. The energies were worked out here from pooled read counts, against the library average; single values are noisy.
Molecular target: T1, Pho4 (S. cerevisiae) (UniProt P07270)
T1 sequence: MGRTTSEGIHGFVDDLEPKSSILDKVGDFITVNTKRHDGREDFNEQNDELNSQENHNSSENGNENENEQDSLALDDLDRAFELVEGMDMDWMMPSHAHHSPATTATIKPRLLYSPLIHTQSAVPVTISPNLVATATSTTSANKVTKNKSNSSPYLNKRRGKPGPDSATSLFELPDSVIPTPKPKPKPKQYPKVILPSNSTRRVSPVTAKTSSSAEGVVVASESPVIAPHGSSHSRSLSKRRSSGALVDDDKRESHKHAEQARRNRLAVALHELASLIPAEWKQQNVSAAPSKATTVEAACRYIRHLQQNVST
Experiment: relative binding free energy (BET-seq); higher = weaker binding
Conditions: reference: library average

Sequence | relative binding free energy [kcal/mol]
GTTGACACGTGCTATG | 0.02
CGAGTCACGTGGGGGT | -0.11
TTTAGCACGTGTGCTC | 0.07
AAGGTCACGTGTGGGT | 0.14
GCGCGCACGTGCGGTG | -0.13
ATTGGCACGTGAGGCG | 0.02
CCGGGCACGTGTGAGT | -0.09
GAGTACACGTGGTGGA | 0
ATAGTCACGTGGGCCG | -0.06
GCAATCACGTGTGTGG | 0.09
ATATGCACGTGGGCCT | -0.13
TTATTCACGTGGAAGT | 0.4
TTTTACACGTGCCGGT | 0.11
AATATCACGTGTTCGT | 0.15
ATGGTCACGTGTATAA | 0.18
GTGTTCACGTGGGTGG | 0.14
AATTTCACGTGATGTA | 0.36
AGTTACACGTGTAGAG | 0.09
ATGATCACGTGTAGTG | 0.06
AGTGACACGTGGGTCG | -0.12
TTGCTCACGTGCTGGG | 0.16
GTATACACGTGTTCTG | 0
GAATGCACGTGGGACG | -0.01
GGGAGCACGTGGGTTC | -0.09
TGGAACACGTGAGGCT | 0.25
ATAATCACGTGATTTA | 0.18

Sequence | relative binding free energy [kcal/mol]
ATGATCACGTGATGGG | 0.39
TACTGCACGTGTGAGG | 0.07
GTGTTCACGTGGGTGT | 0.22
TGGTGCACGTGGTTCC | -0.06
GCGGTCACGTGGTCGT | 0.08
GCGGTCACGTGGCGGG | -0.03
TTAGTCACGTGCGAAG | 0.06
CGGTACACGTGGGCTG | -0.09
GGCTCCACGTGGGGTT | -0.21
TTCACCACGTGGGGTT | -0.14
CAGTACACGTGAGGGG | 0.35
GCGGCCACGTGGGGGG | -0.25
CGAGGCACGTGCTTGG | -0.14
TTGGGCACGTGCGTAT | -0.2
CTGTGCACGTGTAATA | 0.12
GCAAGCACGTGGTGGT | -0.12
GTTTCCACGTGAGGGG | 0.34
AGGGTCACGTGTGCTT | 0.07
ATTGGCACGTGTCTGT | -0.18
AAGGGCACGTGGTTCG | -0.13
TATGCCACGTGGTTAT | -0.21
CTGGTCACGTGTGGAC | 0.36
ATAGGCACGTGAAATG | 0.15
GGAGGCACGTGGGGGT | -0.16
TAGTTCACGTGGCGGA | 0.21
GTTTCCACGTGTGTTG | 0.28

Sequence | relative binding free energy [kcal/mol]
GGAATCACGTGTAGTA | 0.14
GGGTTCACGTGGGCGC | 0.16
TGATTCACGTGAATGG | 0.36
AAATTCACGTGGATTT | 0.28
AGTGTCACGTGATATT | 0.16
GGTTTCACGTGATAAA | 0.29
GGGATCACGTGAGTCT | 0.49
GCTAGCACGTGTGTAG | -0.05
TGCGGCACGTGGGCCT | -0.31
GGTGTCACGTGCTATT | 0.11
ATGGACACGTGTGGGG | 0.09
GCTTTCACGTGGAGGT | 0.24
GCGGTCACGTGAGGGG | 0.26
TGTGGCACGTGTGACT | 0.06
ATATTCACGTGCTTTG | 0.3
TTGGTCACGTGTGGAA | 0.24
TTTTCCACGTGAAGGT | 0.46
TATTACACGTGATCGT | 0.03
TGCGGCACGTGAAGTG | 0.09
GTTCTCACGTGCGTTT | 0.43
TTTTGCACGTGTATAC | -0.02
TTTTTCACGTGCAGGG | 0.29
AGACTCACGTGGAGGT | 0.18
TGGTGCACGTGATGGC | 0.11
TGTGCCACGTGGACGT | 0.06
TGGTGCACGTGTTCTT | -0.04

Sequence | relative binding free energy [kcal/mol]
TCATCCACGTGATTTG | 0.44
TGTGACACGTGGGTCT | -0.11
GGGTGCACGTGAGATG | 0.35
GGCTACACGTGTGTGT | 0.09
TTGGTCACGTGGCACG | -0.05
AATTTCACGTGGTGGG | 0.19
CGGTGCACGTGTGTAA | -0.08
GTTTGCACGTGTAAGT | 0.27
TTATTCACGTGAAGGT | 0.43
GGAGGCACGTGTGAGA | 0.04
AAAGGCACGTGAGGTA | 0.17
TTGGGCACGTGAGGGA | 0.12
TTACGCACGTGGGCGT | -0.26
TATATCACGTGTATGG | 0.05
ATGAACACGTGGAGTT | 0.02
TGACACACGTGGGAGT | -0.17
CGTTTCACGTGGTGCT | 0.11
GTGTACACGTGGTGTC | 0.06
ATATTCACGTGGTTAT | 0.11
GGTGTCACGTGTTCTT | 0.13
AAGACCACGTGGGGGG | -0.22
AAAATCACGTGTGTTT | 0.1
ATTATCACGTGATTTA | 0.16
TTTGTCACGTGAGTAC | 0.18
GGGGTCACGTGGGGCC | 0.09
CTCGTCACGTGTGGGT | 0.02

Sequence | relative binding free energy [kcal/mol]
ATCTGCACGTGTGGGA | 0.03
CAGTTCACGTGGGTTG | 0.14
GGAGGCACGTGTTGGA | -0.05
TGGATCACGTGGGATC | 0.15
TGGTACACGTGCATGT | 0.04
GGGAGCACGTGCGCGG | -0.25
TAGGCCACGTGTTTTT | -0.02
TTATGCACGTGCGCTG | -0.06
TTTGTCACGTGCTGTT | 0.1
TCAGTCACGTGCGTGT | -0.06
GAGTACACGTGCGTGA | 0.09
GGACACACGTGGCGGG | -0.08
ATTGTCACGTGGTGGC | 0.07
AACGGCACGTGGGGCG | -0.28
AGGCGCACGTGGTAGA | -0.24
TGTGACACGTGAGTTT | 0.09
TAGATCACGTGAATGG | 0.39
AAAGTCACGTGTGGCG | 0.09
TCGATCACGTGGGTTA | -0.05
GGGAGCACGTGTCAAG | 0.03
ATCTACACGTGTGTGT | -0.04
CGAAACACGTGGGGTG | -0.23
AATAACACGTGTTATG | 0.02
TTTGCCACGTGGCAGG | -0.15
GTAAACACGTGTTGTG | -0.08
TAGGACACGTGGTTAA | 0.02

Sequence | relative binding free energy [kcal/mol]
GGTAGCACGTGCAGAG | 0.01
GATTTCACGTGGAGGG | 0.34
GTTATCACGTGAAGGA | 0.37
CAGGGCACGTGTTCGT | -0.1
GGGATCACGTGCGAGG | 0.23
TTGCTCACGTGTGTAT | 0.22
CGGTTCACGTGCGTTA | 0.28
CAAGGCACGTGATGTG | 0.07
TCCTGCACGTGGTAGG | -0.08
GTTGGCACGTGTGGGT | 0.12
CTAGGCACGTGAGTTG | 0.21
TATTACACGTGAATTA | 0.38
CATTACACGTGTGGGA | 0.23
AGTTGCACGTGTGTAG | -0.08
TCGTTCACGTGAACTT | 0.47
TTGTACACGTGACGGT | 0.13
GGGGCCACGTGAGCTG | 0.06
TTTGGCACGTGAATAC | 0.19
GTTGTCACGTGATTAT | 0.22
GATATCACGTGTATTT | 0.21
TGGGGCACGTGTCATG | -0.12
AGGGTCACGTGGTTTC | 0.05
TAGGGCACGTGATCTT | -0.04
TTAGTCACGTGTTTAT | 0.15
GTTGGCACGTGACATG | -0.1
TGTAACACGTGCTGGG | -0.02

Sequence | relative binding free energy [kcal/mol]
TTCTACACGTGGAGTG | 0.05
CGTGCCACGTGTTTTA | 0.07
GATTGCACGTGCCGTG | 0.21
ATATACACGTGGTATT | -0.15
ATGCGCACGTGAAAGG | 0.17
GGGTTCACGTGCGAGT | 0.25
TACGACACGTGTTTGT | 0.09
GTATTCACGTGGAGCT | 0.17
TTTAACACGTGGTGTT | -0.24
GGTGTCACGTGAAGGG | 0.35
TACATCACGTGTTGGT | 0.09
GATTTCACGTGTTGTC | 0.3
TGTTTCACGTGTTATG | 0.29
AAATACACGTGGAGTG | -0.05
TTCGCCACGTGGGTTG | -0.22
TAGGACACGTGGATAT | 0.08
GTTTACACGTGACGGT | 0.31
AGGTTCACGTGAGGGA | 0.36
TGACGCACGTGGGGGA | -0.27
ATGAGCACGTGTGGCG | 0.02
GATGGCACGTGACGTG | -0.02
ATTTGCACGTGTTTCT | 0.08
GGCCTCACGTGCGTGT | 0.17
TGTGTCACGTGTCTGC | -0.01
CGTACCACGTGGGGGG | -0.29
TGGGGCACGTGGTGTC | -0.17

Sequence | relative binding free energy [kcal/mol]
GAATGCACGTGTAGGT | 0.02
AGTGGCACGTGGGCGC | -0.21
CTTGACACGTGTTCGT | -0.07
TTTTGCACGTGGTAGT | 0.01
GGGTCCACGTGATTTT | 0.15
TAGTGCACGTGGTTGT | -0.06
GGCCTCACGTGTAGGG | 0.04
TAATGCACGTGGTCTG | -0.15
TGTTACACGTGTTGCT | 0.05
TGTTGCACGTGGCCGA | -0.09
TCTAGCACGTGAGGTG | 0.1
GTTCGCACGTGGAAGG | 0.11
TCGTCCACGTGTGGTG | 0.09
GTTGGCACGTGTCTTC | 0.02
GGGTGCACGTGGCAGT | -0.07
TAGTTCACGTGGGCAT | 0.05
GTGTTCACGTGTTCAT | 0.23
GGATTCACGTGTTTGC | 0.33
GTGGGCACGTGTGTTT | 0.01
TATTCCACGTGTGAGT | 0.08
GGTTCCACGTGTGGGT | 0.15
GGTTGCACGTGGAATG | 0.16
GAGATCACGTGTGGCG | 0.24
GATGTCACGTGGGGCG | -0.01
TGGAGCACGTGTATCG | -0.11
GAGTGCACGTGTCTGG | 0.03

Sequence | relative binding free energy [kcal/mol]
TGAAACACGTGTGTTA | 0.04
ATCGGCACGTGTTTGG | -0.02
GTGACCACGTGGCTGT | 0.02
TGAGGCACGTGGGCGC | -0.26
TTGATCACGTGGTAGT | 0.14
AGGTGCACGTGGTTAA | -0.09
GGTTACACGTGAAGAG | 0.31
AGCGACACGTGGTGGG | -0.04
GTATACACGTGGCGTT | -0.13
CTTCACACGTGGGTTG | -0.11
AGTCTCACGTGTTGTG | 0.11
AGGGTCACGTGGTTCA | 0.06
TTGGACACGTGGTCTT | 0.02
GTTGACACGTGTGAGC | 0.21
TTTAGCACGTGGTAAA | -0.17
GTTGACACGTGTGTCT | 0.03
GGTTACACGTGGAAAT | 0.21
TGCGCCACGTGCGGTG | -0.16
AGAGTCACGTGTAGTA | -0.01
CGGAGCACGTGTTTGT | -0.22
TATGTCACGTGTCGTG | 0.11
TTTTGCACGTGAAGAA | 0.26
